Publication PMC9911399, “Two distinct binding modes provide the RNA-binding protein RbFox with extraordinary sequence specificity”
Numbering of substitutions follows the chain as printed; changes in the protein carry UniProt numbers. This is one part of the list.

T1: RBFOX1 RRM (Homo sapiens, UniProt Q9NWB1 109-208)
T1 sequence: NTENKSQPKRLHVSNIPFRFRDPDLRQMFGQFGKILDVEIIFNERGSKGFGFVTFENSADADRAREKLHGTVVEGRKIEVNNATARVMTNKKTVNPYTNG

B1: GGACGAG (DNA:RNA)
RNA: GGGAGACCGGAAUUCAGAUUGUCCGGACGAGUUAAAUCCCGUCGUAGCCACCA
DNA 1: CAATCTGAATTCCGGTCTCCC
DNA 2: TGGTGGCTACGACGGGATT
B2: CUAGUGA (DNA:RNA)
RNA: B1 RNA with G25C, G26U, C28G, G29U, A30G, G31A
DNA 1: CAATCTGAATTCCGGTCTCCC
DNA 2: TGGTGGCTACGACGGGATT
B3: CAAGAUC (DNA:RNA)
RNA: B1 RNA with G25C, G26A, C28G, G29A, A30U, G31C
DNA 1: CAATCTGAATTCCGGTCTCCC
DNA 2: TGGTGGCTACGACGGGATT
B4: CUACGUC (DNA:RNA)
RNA: B1 RNA with G25C, G26U, A30U, G31C
DNA 1: CAATCTGAATTCCGGTCTCCC
DNA 2: TGGTGGCTACGACGGGATT
B5: AUAGGGU (DNA:RNA)
RNA: B1 RNA with G25A, G26U, C28G, A30G, G31U
DNA 1: CAATCTGAATTCCGGTCTCCC
DNA 2: TGGTGGCTACGACGGGATT
B6: ACAGCAC (DNA:RNA)
RNA: B1 RNA with G25A, G26C, C28G, G29C, G31C
DNA 1: CAATCTGAATTCCGGTCTCCC
DNA 2: TGGTGGCTACGACGGGATT
B7: CAAGGAA (DNA:RNA)
RNA: B1 RNA with G25C, G26A, C28G, G31A
DNA 1: CAATCTGAATTCCGGTCTCCC
DNA 2: TGGTGGCTACGACGGGATT
B8: UUAAUCG (DNA:RNA)
RNA: B1 RNA with G25U, G26U, C28A, G29U, A30C
DNA 1: CAATCTGAATTCCGGTCTCCC
DNA 2: TGGTGGCTACGACGGGATT
B9: GGUCACU (DNA:RNA)
RNA: B1 RNA with A27U, G29A, A30C, G31U
DNA 1: CAATCTGAATTCCGGTCTCCC
DNA 2: TGGTGGCTACGACGGGATT
B10: AAACUAA (DNA:RNA)
RNA: B1 RNA with G25A, G26A, G29U, G31A
DNA 1: CAATCTGAATTCCGGTCTCCC
DNA 2: TGGTGGCTACGACGGGATT
B11: UGGGAUG (DNA:RNA)
RNA: B1 RNA with G25U, A27G, C28G, G29A, A30U
DNA 1: CAATCTGAATTCCGGTCTCCC
DNA 2: TGGTGGCTACGACGGGATT
B12: CGAAAAA (DNA:RNA)
RNA: B1 RNA with G25C, C28A, G29A, G31A
DNA 1: CAATCTGAATTCCGGTCTCCC
DNA 2: TGGTGGCTACGACGGGATT
B13: CUAAUGU (DNA:RNA)
RNA: B1 RNA with G25C, G26U, C28A, G29U, A30G, G31U
DNA 1: CAATCTGAATTCCGGTCTCCC
DNA 2: TGGTGGCTACGACGGGATT
B14: UCAGGGU (DNA:RNA)
RNA: B1 RNA with G25U, G26C, C28G, A30G, G31U
DNA 1: CAATCTGAATTCCGGTCTCCC
DNA 2: TGGTGGCTACGACGGGATT
B15: CCGUUUG (DNA:RNA)
RNA: B1 RNA with G25C, G26C, A27G, C28U, G29U, A30U
DNA 1: CAATCTGAATTCCGGTCTCCC
DNA 2: TGGTGGCTACGACGGGATT
B16: CGCGCGU (DNA:RNA)
RNA: B1 RNA with G25C, A27C, C28G, G29C, A30G, G31U
DNA 1: CAATCTGAATTCCGGTCTCCC
DNA 2: TGGTGGCTACGACGGGATT
B17: CCGGCCU (DNA:RNA)
RNA: GGGAGACCGGAAUUCAGAUUGUCCCCGGCCUUUAAAUCCCGUCGUAGCCACCA
DNA 1: CAATCTGAATTCCGGTCTCCC
DNA 2: TGGTGGCTACGACGGGATT
B18: CUCAACC (DNA:RNA)
RNA: B17 RNA with C26U, G27C, G28A, C29A, U31C
DNA 1: CAATCTGAATTCCGGTCTCCC
DNA 2: TGGTGGCTACGACGGGATT
B19: ACCUAGA (DNA:RNA)
RNA: B17 RNA with C25A, G27C, G28U, C29A, C30G, U31A
DNA 1: CAATCTGAATTCCGGTCTCCC
DNA 2: TGGTGGCTACGACGGGATT
B20: GCACGCG (DNA:RNA)
RNA: B1 RNA with G26C, A30C
DNA 1: CAATCTGAATTCCGGTCTCCC
DNA 2: TGGTGGCTACGACGGGATT

Each binder was assayed against T1, RBFOX1 RRM (assay: EMSA; HiTS-Eq, 1 nM pool, 10 min; buffer printed only for the single-RNA assays: 10 mM Tris pH 7.5, 150 mM NaCl, 3.4 mM EDTA, 0.001% NP-40, 30 C). Settings: tags: His6 N-terminal (pET28a); label: 5' 32P.
In short: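 Purified wild-type or mutant RbFox RRM at increasing concentrations was equilibrated with 1 nM of 5′-radiolabelled RNA carrying 7 randomized nucleotides for 10 min in 50 µL. Unbound RNA was separated by 8% native PAGE and sequenced. Relative association constants came from read-count changes of each RNA species compared with the control reaction, normalised to the cognate motif.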

Row | Binder | binding signal
1 | B1 | 0.0194 KA relative to UGCAUGU
2 | B2 | 0.00852 KA relative to UGCAUGU
3 | B3 | 0.00144 KA relative to UGCAUGU
4 | B4 | 0.0065 KA relative to UGCAUGU
5 | B5 | 0.00664 KA relative to UGCAUGU
6 | B6 | 0.00464 KA relative to UGCAUGU
7 | B7 | 0.00944 KA relative to UGCAUGU
8 | B8 | 0.0123 KA relative to UGCAUGU
9 | B9 | 0.0035 KA relative to UGCAUGU
10 | B10 | 0.00123 KA relative to UGCAUGU
11 | B11 | 0.0414 KA relative to UGCAUGU
12 | B12 | 0.00119 KA relative to UGCAUGU
13 | B13 | 0.00674 KA relative to UGCAUGU
14 | B14 | 0.00906 KA relative to UGCAUGU
15 | B15 | 0.0217 KA relative to UGCAUGU
16 | B16 | 0.0184 KA relative to UGCAUGU
17 | B17 | 0.0204 KA relative to UGCAUGU
18 | B18 | 0.000946 KA relative to UGCAUGU
19 | B19 | 0.00353 KA relative to UGCAUGU
20 | B20 | 0.0376 KA relative to UGCAUGU
